According to PubChem BioAssay AID493208 (National Center for Advancing Translational Sciences (NCATS), 2011):
The campaign covered roughly 44,000 compounds. About 340 (0.77%) were called active. About 5% were inconclusive and are not listed. Calls follow the shape of the dose curve; as a rule, active = well fitted inhibition curve with a large enough effect; inconclusive = small, poorly fitted or top-dose-only effect; inactive = flat fitted curve, though single readings scatter. The list shows a part of the results.

Assay: Acumen qHTS Assay for Inhibitors of the mTORC1 Signaling Pathway in MEF (Tsc2-/-, p53-/-) Cells: Sytravon; also: nearly all actives have a fitted effect of over 50% in size;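 as to activity change, negative = inhibition: plate controls were DMSO for no effect and rapamycin for full effect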
Conditions: phospho-rpS6 immunofluorescence/PI, 24 h; series mostly up to 38.3 µM; activity change, negative = inhibition: at the top concentration
Method in brief: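 Immunofluorescence of rpS6 phosphorylation in Tsc2-/-, p53-/- MEFs after 24 h compound exposure, normalized to propidium iodide signal. Activity is expressed as % positive cells, thresholded with 7.5 nM rapamycin.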
Potency is read from the fitted curve at half-maximal effect.

SMILES	activity change, negative = inhibition	Potency
Cc1cccn2c(=O)c3cc(C(=O)NC(C)c4ccccc4)c(=N)n(CCOCCO)c3nc12 (stereo unspecified)	inactive: 0.827%	–
CC(C)c1ccc(-c2noc(SCC(=O)N(C)c3ccc(F)cc3)n2)cc1	inactive: -9.49%	–
CCOC(=O)c1cc(OC(=O)c2cccc(F)c2)n(-c2ccccc2)n1	inactive: 12.1%	–
CC(=O)N1CCCc2ccc(NC(=O)c3ccc(C(F)(F)F)cc3)cc21	inactive: 0.978%	–
CCOc1ccc(N(C(=O)c2ccc(OC)cc2)S(=O)(=O)c2ccc3c(c2)n(C)c(=O)n3C)cc1	inactive: 1.09%	–
CC(C)c1ccc(NC(=O)CN2C=NS(=O)(=O)c3ccccc32)cc1	inactive: -0.833%	–
CCC(=O)OC1=CN(Cc2ccccc2)S(=O)(=O)c2ccccc21	inactive: -1.57%	–
CCC(=O)C1=C(c2ccc(F)cc2)N(C(=O)CC)n2c(nnc2C2CCCCC2)S1	inactive: 0.283%	–
CCN(CC)S(=O)(=O)c1ccc2c(c1)N(CC(=O)Nc1c(C)cc(C)cc1C)C(=O)CS2	inactive: 3.47%	–
Cc1cc(C)cc(NC(=O)CSc2nnc(CNC(=O)c3c(F)cccc3Cl)o2)c1	inactive: -0.717%	–
COC(=O)c1cc2oc(C)cc2n1Cc1ccc(C)cc1	inactive: 8.2%	–
Cc1cccc(N2CCN(C(=O)CN3C(=O)COc4ccc(S(=O)(=O)N5CCCC5)cc43)CC2)c1C	inactive: 1.12%	–
N#C/C(=C\c1c(Oc2ccc(F)cc2)nc2ccccn2c1=O)c1nc2ccccc2s1	inactive: 1.16%	–
CCCOc1ccc(C(=O)Nc2sc3c(c2C(=O)OCC)CCCCC3)cc1	inactive: -9.97%	–
O=C1CC(c2ccc(F)cc2)c2c(n3c(nc4ccccc43)[nH]c2=O)N1 (stereo unspecified)	inactive: -7.49%	–
CCc1ccc(CNC(=O)C2CCN(C(=O)c3ccc(-n4ccc5ccccc54)s3)CC2)cc1	inactive: 11.9%	–
Cc1ccccc1CS(=O)(=O)c1ncc(Cl)c(C(=O)Nc2nnc(C(C)C)s2)n1	–	active: 9.27 µM
Cc1oc(-c2cccc(Br)c2)nc1CSc1nc2ncccc2[nH]1	inactive: -1.13%	–
COc1cc2ccccc2cc1C(=O)Nc1cccc(-c2nc3ccccc3o2)c1	inactive: 0.165%	–
COc1ccc(N2CCN(C(=O)c3cn(C)c4ccc(S(=O)(=O)N(C)C5CCCCC5)cc4c3=O)CC2)cc1	inactive: 0.25%	–
COc1ccc(CNC(=O)C2CCN(S(=O)(=O)c3c(C)noc3/C=C/c3cccs3)CC2)cc1	inactive: -5.71%	–
Cc1ccc(NC(=O)c2c(C(=O)Nc3ccccc3)sc3nc(C)cc(=O)n23)cc1	inactive: 0.856%	–
CC(C(=O)NCc1cccc(Br)c1)n1ncn2cccc2c1=O (stereo unspecified)	–	active: 0.585 µM
Cc1ccccc1NC(=O)CCOc1ccccc1	inactive: 4.67%	–
Cn1cc(-c2cc3n(n2)CCC(=O)N3CCCC(=O)Nc2ccccc2Cl)c2ccccc21	inactive: -4.62%	–
Cc1ccccc1S(=O)(=O)Cc1ccc(C(=O)NCc2ccccc2Cl)o1	inactive: -15.5%	–
